The list shows a part of the results.

The test system of one test is HSkMC. Briefly: cytotoxicity call (relative viability < 0.9). As to conditions: 10 µM.
In a further test the test system is HepG2. Briefly: cytotoxicity call (relative viability < 0.9). As to conditions: 10 µM.
The subject of a further test is S. aureus RN4220. Briefly: growth inhibition call (relative growth <= 0.2). As to conditions: 50 µM.

With `C[C@@H]1CN([C@@H](C)CO)C(=O)c2cc(NC(=O)Nc3cccc4ccccc34)ccc2O[C@H]1CN(C)C(=O)Nc1cccc2ccccc12`, the cytotoxicity call in the test on HSkMC and with HepG2 was “inactive” each time. In the test on S. aureus RN4220, the growth inhibition call was “inactive”.
Take `COc1cccc(NC(=O)N2C[C@@H](O)COC[C@@H]3O[C@H](CC(=O)NC4Cc5ccccc5C4)CC[C@H]32)c1`: the cytotoxicity call in the test with HSkMC and with HepG2 was “inactive” each time. Further, the growth inhibition call in the test with S. aureus RN4220 was “inactive”.
Turning to `C[C@H]1CN([C@@H](C)CO)C(=O)c2cc(NS(C)(=O)=O)ccc2O[C@H]1CN(C)C(=O)Nc1ccc(F)cc1`, the cytotoxicity call in the test with HSkMC and in the test on HepG2 was “inactive” each time. Also, in the test with S. aureus RN4220, the growth inhibition call is “inactive”.
Regarding `COC(=O)CCCCCCC(=O)Nc1ccc([C@H]2O[C@@H](CSc3ccccn3)C[C@H](c3ccccc3)O2)cc1`, the cytotoxicity call in the test on HSkMC and in the test on HepG2 was “inactive” each time. The growth inhibition call with S. aureus RN4220 is “inactive”.
As to `O=C(C[C@@H]1CC[C@@H](NC(=O)CN2CCOCC2)[C@@H](CO)O1)NCCc1ccncc1`, the cytotoxicity call in the test with HSkMC and in the test on HepG2 was “inactive” each time. Further, the growth inhibition call with S. aureus RN4220 was “inactive”.
For the compound `Cc1noc(C)c1S(=O)(=O)Nc1ccc2c(c1)C(=O)N([C@@H](C)CO)C[C@H](C)[C@H](CN(C)S(=O)(=O)c1cn(C)cn1)O2`, the cytotoxicity call in the test with HSkMC and in the test on HepG2 was “inactive” each time. For the same compound, in the test with S. aureus RN4220, the growth inhibition call is “inactive”.
For `CCCCN1CC=C[C@@]23O[C@@H]4C=CCOC(=O)[C@@H]4[C@H]2C(=O)N([C@@H](C)CO)[C@@H]3C1=O`, the cytotoxicity call in the test on HSkMC and in the test on HepG2 was “inactive” each time. For the same compound, the growth inhibition call in the test with S. aureus RN4220 is “inactive”.
Take `C[C@@H]1CCCCO[C@@H](CN(C)Cc2ccncc2)[C@@H](C)CN([C@H](C)CO)C(=O)c2cc(NC(=O)Nc3ccccc3)ccc2O1`: the cytotoxicity call in the test with HSkMC and in the test with HepG2 was “inactive” in each case. Also, in the test with S. aureus RN4220, the growth inhibition call was “inactive”.
Regarding `Cc1noc(C)c1NC(=O)Nc1ccc2c(c1)C(=O)N([C@H](C)CO)C[C@H](C)[C@H](CN(C)Cc1ccc3c(c1)OCO3)OCCCC[C@H](C)O2`, the cytotoxicity call with HSkMC and with HepG2 was “inactive” throughout. In addition, in the test with S. aureus RN4220, the growth inhibition call was “inactive”.
As to `CO[C@@H]1CN(C)C(=O)c2cc(NS(C)(=O)=O)ccc2OC[C@@H](C)N(C(=O)C2CCCCC2)C[C@H]1C`, the cytotoxicity call in the test on HSkMC and with HepG2 was “inactive” throughout. Besides, in the test with S. aureus RN4220, the growth inhibition call was “inactive”.
Take `C[C@@H](Nc1nc(=O)cc(F)[nH]1)C(=O)O`: the cytotoxicity call in the test with HSkMC and in the test on HepG2 was “inactive” in each case. In addition, in the test on S. aureus RN4220, the growth inhibition call is “inactive”.
As for `C[C@@H]1CN([C@H](C)CO)C(=O)Cc2cc(NC(=O)Cc3cn(C)c4ccccc34)ccc2O[C@@H]1CN(C)C`, the cytotoxicity call in the test with HSkMC and with HepG2 was “inactive” in each case. Moreover, the growth inhibition call with S. aureus RN4220 is “inactive”.
Take `Cc1ccc(S(=O)(=O)Nc2ccc3c(c2)C(=O)N([C@H](C)CO)C[C@H](C)[C@@H](CN(C)Cc2ccc4c(c2)OCO4)OCCCC[C@@H](C)O3)cc1`: the cytotoxicity call with HSkMC and in the test on HepG2 was “inactive” in each case. The growth inhibition call in the test on S. aureus RN4220 is “inactive”.
Consider `COc1ccc(NC(=O)Nc2ccc3c(c2)C(=O)N([C@H](C)CO)C[C@@H](C)[C@H](CN(C)S(=O)(=O)c2cccs2)OCCCC[C@@H](C)O3)cc1`, for which the cytotoxicity call in the test with HSkMC and in the test on HepG2 was “inactive” throughout. Also, in the test with S. aureus RN4220, the growth inhibition call is “inactive”.
Consider `C[C@H](CO)N1C[C@H](C)[C@H](CN(C)CC2CCCCC2)OCCCC[C@H](C)Oc2ccc(NC(=O)Nc3ccc(F)cc3)cc2C1=O`, for which the cytotoxicity call in the test with HSkMC and in the test with HepG2 was “active” each time. Moreover, in the test with S. aureus RN4220, the growth inhibition call is “inactive”.
On to `COc1ccc(CN(C)C[C@@H]2Oc3c(NC(=O)c4cc(C)nn4C)cccc3C(=O)N([C@H](C)CO)C[C@H]2C)cc1`, for which the cytotoxicity call in the test with HSkMC and with HepG2 was “inactive” in each case. In addition, the growth inhibition call in the test on S. aureus RN4220 is “inactive”.
On to `C[C@@H]1CN([C@H](C)CO)C(=O)c2cccc(NC(=O)C3CCOCC3)c2O[C@@H]1CN(C)Cc1ccc(-c2ccccc2)cc1`, for which the cytotoxicity call in the test on HSkMC and in the test on HepG2 was “inactive” each time. Moreover, in the test with S. aureus RN4220, the growth inhibition call is “inactive”.
Take `CN1CCN(C(=O)C[C@H]2CC[C@@H]3[C@H](COC[C@@H](O)CN3C(=O)Nc3cc(Cl)cc(Cl)c3)O2)CC1`: the cytotoxicity call in the test on HSkMC and in the test on HepG2 was “inactive” each time. Besides, the growth inhibition call with S. aureus RN4220 was “inactive”.
In the case of `COc1ccc(CN(C)C[C@H]2OCCCC[C@H](C)Oc3ccc(NS(=O)(=O)c4ccccc4)cc3C(=O)N([C@@H](C)CO)C[C@@H]2C)cc1`, the cytotoxicity call with HSkMC and in the test on HepG2 was “inactive” in each case. In the test with S. aureus RN4220, the growth inhibition call is “inactive”.
For `C(=N\c1nnc2nc[nH]n12)/c1ccco1`, the cytotoxicity call with HSkMC and with HepG2 was “inactive” throughout. The growth inhibition call in the test on S. aureus RN4220 is “inactive”.
As for `C[C@@H]1CN([C@H](C)CO)C(=O)c2cccc(NS(C)(=O)=O)c2O[C@@H]1CN(C)Cc1ccc2c(c1)OCO2`, the cytotoxicity call with HSkMC and with HepG2 was “inactive” each time. In addition, in the test on S. aureus RN4220, the growth inhibition call was “inactive”.
As to `Cc1noc(C)c1S(=O)(=O)Nc1cccc2c1O[C@H](CN(C)Cc1ccc(-c3ccccc3)cc1)[C@H](C)CN([C@H](C)CO)C2=O`, the cytotoxicity call with HSkMC and with HepG2 was “inactive” in each case. In addition, in the test with S. aureus RN4220, the growth inhibition call is “inactive”.
`COc1ccccc1-c1cccc(-c2nc(C(=O)N3CCCCC3)cc3c2[C@@H](CCO)N([S@@](=O)C(C)(C)C)C3)c1`: the cytotoxicity call with HSkMC and in the test with HepG2 was “inactive” in each case. Besides, the growth inhibition call in the test on S. aureus RN4220 is “inactive”.
For `O=C(Nc1ccccc1C(=O)O)c1nnc[nH]1`, the cytotoxicity call in the test with HSkMC and in the test on HepG2 was “inactive” in each case. Further, the growth inhibition call with S. aureus RN4220 is “inactive”.
`Nc1cccc2c1C(=O)N([C@H]1CCC(=O)NC1=O)C2=O`: the cytotoxicity call in the test on HSkMC (human skeletal muscle cells) and in the test on HepG2 was “inactive” in each case. For the same compound, in the test on S. aureus RN4220, the growth inhibition call is “inactive”.
With `Cc1noc(C)c1NC(=O)N[C@@H]1CC[C@@H](CC(=O)N2CCN(C)CC2)O[C@H]1CO`, the cytotoxicity call in the test with HSkMC and in the test on HepG2 was “inactive” each time. In the test with S. aureus RN4220, the growth inhibition call is “inactive”.
`C[C@H]1CCCCO[C@H](CN(C)C(=O)CCCN(C)C)[C@@H](C)CN([C@@H](C)CO)C(=O)c2cc(NC(=O)Nc3ccc(C(F)(F)F)cc3)ccc2O1`: the cytotoxicity call with HSkMC and in the test with HepG2 was “inactive” throughout. Also, the growth inhibition call in the test with S. aureus RN4220 was “inactive”.

Source of the values: the antibiotic and cytotoxicity screens of Wong et al. (2023).
